We go through 27 compounds from the supplement of paper PMC4604168 (melanoma cell lines).

The other results are listed elsewhere or left out. Repeats are few or missing, and single values can be far off.
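Also: cells treated in 1,536-well plates, then fixed and DAPI-stained, with nuclei counted from automated high-throughput microscope images.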

The test system of the first experiment is SkMel5. The experiment can be described thus: cell count relative to DMSO control; melanoma cells; higher = more viable cells. The conditions noted are these: library dose: standard library concentration; 72 h.
Consider `COc1cc([C@@H]2c3cc4c(cc3[C@@H](O[C@@H]3O[C@@H]5CO[C@@H](C)O[C@H]5[C@H](O)[C@H]3O)[C@H]3COC(=O)[C@H]23)OCO4)cc(OC)c1O` [etoposide] + CC(C)(C)c1cnc(CSc2cnc(NC(=O)C3CCNCC3)s2)o1 [SNS-032] (first compound 0.1 µM, partner dose 0.05 µM), for which the cell count worked out at 82.4%.
`C[C@]1(O)C[C@@H](c2nc(-c3ccc4ccc(-c5ccccc5)nc4c3)c3c(N)nccn32)C1` + C=CCn1c(=O)c2cnc(Nc3ccc(N4CCN(C)CC4)cc3)nc2n1-c1cccc(C(C)(C)O)n1 [MK1775] (first compound 2 µM, partner dose 0.1 µM): the cell count worked out at 52%.
Still for that read-out and setting: in the case of `COc1cc([C@@H]2c3cc4c(cc3[C@@H](O[C@@H]3O[C@@H]5CO[C@@H](C)O[C@H]5[C@H](O)[C@H]3O)[C@H]3COC(=O)[C@H]23)OCO4)cc(OC)c1O` [etoposide] + O=C(CCCCCCC(=O)Nc1ccccc1)NO [vorinostat] (first compound 0.1 µM, partner dose 0.4 µM) it was 74%.
In turn, `COc1cc([C@@H]2c3cc4c(cc3[C@@H](O[C@@H]3O[C@@H]5CO[C@@H](C)O[C@H]5[C@H](O)[C@H]3O)[C@H]3COC(=O)[C@H]23)OCO4)cc(OC)c1O` [etoposide] + O=C(O)c1ccc(-c2c[nH]c3ncc(-c4ccccc4)cc23)cc1C1CCCC1 [GSK650394] (first compound 0.1 µM, partner dose 0.8 µM) displayed a cell count of 77.9%.
In turn, `Cn1cnc2c(F)c(Nc3ccc(Br)cc3Cl)c(C(=O)NOCCO)cc21` [selumetinib] + Cc1ccc(NC(=O)c2cccc(N(C)C)c2)cc1NC(=O)c1ccc(O)cc1 [ZM336372] (first compound 0.075 µM, partner dose 10 µM) registered a cell count of 79.5%.
On the same count and under the same terms, in the case of `C[C@]1(O)C[C@@H](c2nc(-c3ccc4ccc(-c5ccccc5)nc4c3)c3c(N)nccn32)C1` + OCCn1cc(-c2cnc3nnn(Cc4ccc5ncccc5c4)c3n2)cn1 [PF04217903] (first compound 2 µM, partner dose 5 µM) it was 67.8%; in that of `CCN(CC)CCNC(=O)c1c(C)[nH]c(/C=C2\C(=O)Nc3ccc(F)cc32)c1C` [sunitinib] + CN(C)S(=O)(=O)c1ccc2c(c1)/C(=C/c1cc3c([nH]1)CCCC3)C(=O)N2 [SU6656] (first compound 2 µM, partner dose 2 µM), 47.4%; in that of `CCN(CC)CCNC(=O)c1c(C)[nH]c(/C=C2\C(=O)Nc3ccc(F)cc32)c1C` [sunitinib] + CC(C)(C)c1cnc(CSc2cnc(NC(=O)C3CCNCC3)s2)o1 [SNS-032] (first compound 2 µM, partner dose 0.05 µM), 27%.
Same read-out and setting: in the case of `Cn1cnc2c(F)c(Nc3ccc(Br)cc3Cl)c(C(=O)NOCCO)cc21` [selumetinib] + O=C(Nc1cccc(Cl)c1)Nc1ncc(CCNc2ncnc3ccsc23)s1 [SNS314] (first compound 0.075 µM, partner dose 0.004 µM) it was 69%.
Still for that read-out and setting: in the case of `COc1cc([C@@H]2c3cc4c(cc3[C@@H](O[C@@H]3O[C@@H]5CO[C@@H](C)O[C@H]5[C@H](O)[C@H]3O)[C@H]3COC(=O)[C@H]23)OCO4)cc(OC)c1O` [etoposide] + CC1(C)NC(=O)N(c2ccc([N+](=O)[O-])c(C(F)(F)F)c2)C1=O [nilutamide] (first compound 0.1 µM, partner dose 5 µM) it was 78.9%.

In another experiment the test system is UACC257. The description is as above. The conditions noted are these: library dose: standard library concentration; 72 h.
Consider `COc1cc([C@@H]2c3cc4c(cc3[C@@H](O[C@@H]3O[C@@H]5CO[C@@H](C)O[C@H]5[C@H](O)[C@H]3O)[C@H]3COC(=O)[C@H]23)OCO4)cc(OC)c1O` [etoposide] + NC(=O)Nc1cc(-c2cccc(F)c2)sc1C(=O)N[C@H]1CCCNC1 [AZD7762] (first compound 0.1 µM, partner dose 0.1 µM), for which the cell count came to 99.6%.
On to `Cn1cnc2c(F)c(Nc3ccc(Br)cc3Cl)c(C(=O)NOCCO)cc21` [selumetinib] + CN(C)S(=O)(=O)c1ccc2c(c1)/C(=C/c1cc3c([nH]1)CCCC3)C(=O)N2 [SU6656] (first compound 0.075 µM, partner dose 2 µM), for which the cell count worked out at 79.7%.
Compound `C[C@]1(O)C[C@@H](c2nc(-c3ccc4ccc(-c5ccccc5)nc4c3)c3c(N)nccn32)C1` + CO[C@@H]1[C@H](N(C)C(=O)c2ccccc2)C[C@H]2O[C@]1(C)n1c3ccccc3c3c4c(c5c6ccccc6n2c5c31)C(=O)NC4 [Midostaurin] (first compound 2 µM, partner dose 0.4 µM) displayed a cell count of 57.2%.
Same read-out and setting: in the case of `Cn1cnc2c(F)c(Nc3ccc(Br)cc3Cl)c(C(=O)NOCCO)cc21` [selumetinib] + C[C@@H]1CCN(C(=O)CC#N)C[C@@H]1N(C)c1ncnc2[nH]ccc12 [CP690550] (first compound 0.075 µM, partner dose 5 µM) it was 92.5%; in that of `Cn1cnc2c(F)c(Nc3ccc(Br)cc3Cl)c(C(=O)NOCCO)cc21` [selumetinib] + OCCn1cc(-c2cnc3nnn(Cc4ccc5ncccc5c4)c3n2)cn1 [PF04217903] (first compound 0.075 µM, partner dose 5 µM), 87.1%; in that of `CCN(CC)CCNC(=O)c1c(C)[nH]c(/C=C2\C(=O)Nc3ccc(F)cc32)c1C` [sunitinib] + CC1(C)NC(=O)N(c2ccc([N+](=O)[O-])c(C(F)(F)F)c2)C1=O [nilutamide] (first compound 2 µM, partner dose 5 µM), 68.8%.
Still for that read-out and setting: in the case of `Cn1cnc2c(F)c(Nc3ccc(Br)cc3Cl)c(C(=O)NOCCO)cc21` [selumetinib] + CO[C@@H]1[C@H](N(C)C(=O)c2ccccc2)C[C@H]2O[C@]1(C)n1c3ccccc3c3c4c(c5c6ccccc6n2c5c31)C(=O)NC4 [Midostaurin] (first compound 0.075 µM, partner dose 0.4 µM) it was 97.1%; in that of `COc1cc([C@@H]2c3cc4c(cc3[C@@H](O[C@@H]3O[C@@H]5CO[C@@H](C)O[C@H]5[C@H](O)[C@H]3O)[C@H]3COC(=O)[C@H]23)OCO4)cc(OC)c1O` [etoposide] + Cc1cc(N2CCOCC2)cc2[nH]c(-c3c(NC[C@@H](O)c4cccc(Cl)c4)cc[nH]c3=O)nc12 [BMS536924] (first compound 0.1 µM, partner dose 1 µM), 89.8%; in that of `Cn1cnc2c(F)c(Nc3ccc(Br)cc3Cl)c(C(=O)NOCCO)cc21` [selumetinib] + C=CCn1c(=O)c2cnc(Nc3ccc(N4CCN(C)CC4)cc3)nc2n1-c1cccc(C(C)(C)O)n1 [MK1775] (first compound 0.075 µM, partner dose 0.1 µM), 79.5%.
Same read-out and setting: in the case of `COc1cc([C@@H]2c3cc4c(cc3[C@@H](O[C@@H]3O[C@@H]5CO[C@@H](C)O[C@H]5[C@H](O)[C@H]3O)[C@H]3COC(=O)[C@H]23)OCO4)cc(OC)c1O` [etoposide] + CO[C@@H]1[C@H](N(C)C(=O)c2ccccc2)C[C@H]2O[C@]1(C)n1c3ccccc3c3c4c(c5c6ccccc6n2c5c31)C(=O)NC4 [Midostaurin] (first compound 0.1 µM, partner dose 0.4 µM) it was 68.5%.
`CCN(CC)CCNC(=O)c1c(C)[nH]c(/C=C2\C(=O)Nc3ccc(F)cc32)c1C` [sunitinib] + C[C@@H]1CCN(C(=O)CC#N)C[C@@H]1N(C)c1ncnc2[nH]ccc12 [CP690550] (first compound 2 µM, partner dose 5 µM) gave a cell count of 97%.
`COc1cc([C@@H]2c3cc4c(cc3[C@@H](O[C@@H]3O[C@@H]5CO[C@@H](C)O[C@H]5[C@H](O)[C@H]3O)[C@H]3COC(=O)[C@H]23)OCO4)cc(OC)c1O` [etoposide] + Nc1ccn([C@@H]2O[C@H](CO)[C@@H](O)C2(F)F)c(=O)n1 [gemcitabine] (first compound 0.1 µM, partner dose 0.002 µM) came in with a cell count of 90.4%.
Turning to `COc1cc([C@@H]2c3cc4c(cc3[C@@H](O[C@@H]3O[C@@H]5CO[C@@H](C)O[C@H]5[C@H](O)[C@H]3O)[C@H]3COC(=O)[C@H]23)OCO4)cc(OC)c1O` [etoposide] + C=CCn1c(=O)c2cnc(Nc3ccc(N4CCN(C)CC4)cc3)nc2n1-c1cccc(C(C)(C)O)n1 [MK1775] (first compound 0.1 µM, partner dose 0.1 µM), the cell count stood at 97.8%.
Same read-out and setting: the figure for `C[C@]1(O)C[C@@H](c2nc(-c3ccc4ccc(-c5ccccc5)nc4c3)c3c(N)nccn32)C1` + Cc1cc(N2CCOCC2)cc2[nH]c(-c3c(NC[C@@H](O)c4cccc(Cl)c4)cc[nH]c3=O)nc12 [BMS536924] (first compound 2 µM, partner dose 1 µM) is 91.9%; for `Cn1cnc2c(F)c(Nc3ccc(Br)cc3Cl)c(C(=O)NOCCO)cc21` [selumetinib] + O=C(CCCCCCC(=O)Nc1ccccc1)NO [vorinostat] (first compound 0.075 µM, partner dose 0.4 µM) it is 77.6%; for `Cn1cnc2c(F)c(Nc3ccc(Br)cc3Cl)c(C(=O)NOCCO)cc21` [selumetinib] + CC(C)(C)c1cnc(CSc2cnc(NC(=O)C3CCNCC3)s2)o1 [SNS-032] (first compound 0.075 µM, partner dose 0.05 µM) it is 73.3%.
Take `COc1cc([C@@H]2c3cc4c(cc3[C@@H](O[C@@H]3O[C@@H]5CO[C@@H](C)O[C@H]5[C@H](O)[C@H]3O)[C@H]3COC(=O)[C@H]23)OCO4)cc(OC)c1O` [etoposide] + Cc1ccc(NC(=O)c2cccc(N(C)C)c2)cc1NC(=O)c1ccc(O)cc1 [ZM336372] (first compound 0.1 µM, partner dose 10 µM): the cell count is 95.4%.
